PubChem BioAssay AID652104 (National Center for Advancing Translational Sciences (NCATS), 2013)
Screen size: about 410,000 compounds; about 7,200 (1.8%) were called active. Inconclusive results, whose numbers are uncertain, are shown with a selection of clear calls. Calls follow the shape of the dose curve; as a rule, active = well fitted activation curve with a large enough effect; inconclusive = small, poorly fitted or top-dose-only effect, or another doubt; inactive = no such curve, though single readings can be large or run the other way. Potencies of inconclusive entries are left out as doubtful fits.

Test: qHTS of TDP-43 Inhibitors; also: nearly all actives have a fitted effect of over 50% in size
Details: TDP-43 expressing yeast growth rescue, BacTiter-Glo, 24 h; series mostly up to 46.1 µM
Summary of the method: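 In this qHTS, compounds that restore growth of yeast expressing TDP-43 appear as activators. Cells (OD600=0.02, galactose medium, raffinose-pregrown) are incubated with compound 24 hr at 30 deg C and growth is quantified by BacTiter-Glo.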
Potency is read from the fitted curve at half-maximal effect; tags tell the direction and shape of the fitted curve.

SMILES | Potency
O=C(Cn1c(=O)nc(-c2ccccc2)c2ccccc21)NCCCc1ccccc1 | inactive
O=C(CCC1CCCC1)Nc1cc(Cl)ccc1N1CCOCC1 | inconclusive [activator, partial curve]
COc1ccc(-n2c(COc3ccccc3)nnc2SCc2ccc(C#N)cc2)cc1 | inconclusive [activator, partial curve]
O=C(NCC(c1ccco1)N1CCc2ccccc21)C(=O)Nc1ccccc1F (configuration not stated) | inconclusive [activator, partial curve]
O=C(Nc1cccc2cccnc12)c1ccc(Cl)cc1 | inconclusive [activator, single point]
CNc1ncnc2c1ncn2[C@H]1CN(Cc2ccncc2)C[C@@H](CO)O1 | inconclusive [activator, full curve, poor fit]
O=C(Nc1ccc(Br)cc1F)c1ccc2nsnc2c1 | inconclusive [activator, single point]
O=c1[nH][nH]c2c1[C@H](c1ccc(Cl)cc1)O[C@H](C1CCCC1)C2 | active: 17.8 µM
COc1ccc(NC(=O)CNC(=O)Cn2cnc3sc4c(c3c2=O)CCCC4)cc1OC | inactive
Nc1cc(N2CCCC2)c(Cl)cc1[N+](=O)[O-] | active: 11.2 µM
CSc1nn(Cc2ccc(Br)cc2)c(N(C(C)=O)C(C)=O)c1S(=O)(=O)c1ccccc1 | active: 35.5 µM
Cc1ccc(-c2nnc(NC(=O)c3ccco3)o2)c(C)c1 | inconclusive [activator, single point]
Clc1ccccc1OCc1nc(-c2ccncc2)no1 | inconclusive [activator, single point]
Cc1c(C(=O)N(C)c2cccc(C(F)(F)F)c2)sc2nc3n(c(=O)c12)CCCCC3 | inconclusive [activator, single point]
CCOc1ccc(OCC(=O)Nc2c(C(=O)Nc3ccc(C)cc3)oc3ccccc23)cc1 | inactive
C=CCn1c(SCc2csc(-c3ccc(Cl)cc3)n2)nnc1-c1ccccc1OC | inconclusive [activator, single point]
CCCCCCCNC(=O)C1(CC2CC(c3ccc(Cl)cc3)=NO2)CCNCC1 (configuration not stated) | inconclusive [activator, partial curve]
Nc1ccc2nn(-c3ccc(Cl)cc3)nc2c1 | inconclusive [activator, partial curve]
Cc1cccc(C)c1NC(=S)NCCSc1ccc(Cl)cc1 | active: 22.4 µM
O=C(COc1ccccc1-c1ccccc1)c1ccccc1 | inconclusive [activator, partial curve]
O=C(Nc1ccc(F)cc1F)c1ccc2c(=O)n3c(nc2c1)CCCCC3 | inconclusive [activator, single point]
CCOC(=O)N1CCN(c2cccc(C)c2C)CC1 | inconclusive [activator, single point]
NNc1nc(-c2ccccc2)c2cc(Cl)ccc2n1 | inconclusive [activator, single point]

SMILES | Potency
O=C(CSc1ncccn1)N/N=C/c1ccc(OC2CSC2)cc1 | active: 11.2 µM
O=C(Cc1cccc2ccccc12)NCCc1ccccc1 | inconclusive [activator, single point]
CCCn1c(N2CCN(C(=O)Nc3ccc(Cl)cc3)CC2)nc2ccccc21 | inconclusive [activator, single point]
COC(=O)/C(=C1/Oc2cc(C)oc(=O)c2S1)C(F)(F)F | active: 8.91 µM
S=c1[nH]nc(C2CCCCC2)n1/N=C/c1ccccc1 | inconclusive [activator, single point]
CN(C)S(=O)(=O)c1cccc(NC(=O)c2cc(-c3cccs3)nc3ccccc23)c1 | inactive
CN(Cc1c(F)cccc1Cl)C(=O)COC(=O)Cn1cnc2ccccc2c1=O | inconclusive [activator, partial curve]
NS(=O)(=O)c1cccc(NC(=O)COC(=O)CN2C(=O)c3ccccc3C2=O)c1 | inconclusive [activator, full curve, poor fit]
Cc1cccc(NC(=O)[C@@H]2CCCN2S(=O)(=O)c2ccc(Cl)cc2)c1 | inconclusive [activator, partial curve]
CC(C)N=C(NS(=O)(=O)c1ccccc1)C(Cl)(Cl)Cl | inconclusive [activator, partial curve]
C=CCNC(=O)C(=O)Nc1ccc2c(c1)N(S(=O)(=O)c1cccs1)CCC2 | inconclusive [activator, single point]
CN(C)/C=C/c1onc(-c2ccccc2Cl)c1C#N | inconclusive [activator, single point]
CSc1ncccc1C(=O)OCn1nnc2ccccc2c1=O | inconclusive [activator, partial curve]
COc1cccc(NC(=S)N/N=C2/CCCCc3ccccc32)c1 | inconclusive [activator, single point]
COc1cccc(NC(=O)CCNC(=O)Cn2ccc3ccccc3c2=O)c1 | inconclusive [activator, partial curve]
COc1cccc(C(=O)N2CCCc3ccccc32)c1 | inconclusive [activator, single point]
O=C(c1ccc(S(=O)(=O)NCc2ccco2)cc1)N1CCCC(C(F)(F)F)C1 (configuration not stated) | inconclusive [activator, single point]
O=Cc1ccc(OC2OCCOC2Oc2ccc(C=O)cc2)cc1 (configuration not stated) | inconclusive [activator, partial curve]
COC(=O)CNC(=O)Cc1c(C)n(C(=O)c2ccc(Cl)cc2)c2ccc(OC)cc12 | inconclusive [activator, single point]
Cc1cccc(CS(=O)(=O)c2ncc(Cl)c(C(=O)NCc3ccccc3)n2)c1 | active: 7.94 µM
CCN1/C(=C\c2ccc3cc(C)ccc3[n+]2CC)Sc2cc(C)c(C)cc21 | inactive
N#Cc1nc(Cl)c(Cl)c(NN)c1Cl | inconclusive [activator, single point]
Cc1ccc(CCNC(=O)CSCc2ccc(F)cc2)cc1 | inconclusive [activator, partial curve]

SMILES | Potency
CCn1cc(C(=O)N(C)Cc2ccc(OC(F)F)cc2)c(=O)c2ccc(C)nc21 | inconclusive [activator, partial curve]
CCOC(=O)C1CCCN(C(=O)c2ccc(F)c(Cl)c2)CC1 (configuration not stated) | inconclusive [activator, partial curve]
O=C(Oc1ccccc1)c1ccccc1OS(=O)(=O)c1ccccc1 | inconclusive [activator, full curve, poor fit]
CCCCNC(=O)CCc1c(C)nc2c(c(C)nn2-c2ccccc2)c1C | inconclusive [activator, partial curve]
COc1cc(OC)c(C=NNC(=S)NC23CC4CC(CC(C4)C2)C3)c(OC)c1 | inconclusive [activator, partial curve]
CCOC(=O)/C(=C\c1ccc(OC)c(OC)c1)C(=O)c1cccnc1 | inconclusive [activator, single point]
Cc1ccc(Cn2c(CNC(=O)c3ccccc3Br)nc3cccnc32)cc1 | active: 11.2 µM
COc1ccc(N2CCN(C(=O)Nc3cccc(C(F)(F)F)c3)CC2)cc1 | inconclusive [activator, partial curve]
CCc1cccc(N=c2c([N+](=O)[O-])nn(-c3ccc(Cl)cc3)n2O)c1 | active: 7.94 µM
Cc1cc(C)c2c(n1)SCC(=O)N2CC(=O)Nc1ccc(Br)c(C)c1 | inconclusive [activator, single point]
O=c1c2c3c(sc2nc2n1CCCCC2)CCC3 | inconclusive [activator, partial curve, poor fit]
Cc1cc(-n2c(C)nc3ccccc3c2=O)ccc1NC(=O)c1cccc([N+](=O)[O-])c1 | inactive
CC(C)n1c(O)c(N=Nc2ccc(Cl)c(C(=O)O)c2)c2ccccc21 | inconclusive [activator, single point]
Nc1ccc(S(=O)(=O)N2CCCc3ccccc32)cc1 | inconclusive [activator, partial curve]
COc1ccc(-c2onc(C)c2C)cc1S(=O)(=O)NC1CCC(C)CC1 (configuration not stated) | inconclusive [activator, partial curve]
CC(C)CNc1cc(N2CCCC2)ccc1[N+](=O)[O-] | inconclusive [activator, single point]
COc1ccccc1NC(=S)NNC(=O)c1ccc(Cl)cc1Cl | inconclusive [activator, single point]
COc1cc(NC(=O)Cn2cc(S(=O)(=O)c3ccccc3)c(=O)c3ccccc32)cc(OC)c1 | inactive
O=C(c1ccc(Cl)cc1)c1cc(-c2ccccn2)c(N2CCOCC2)s1 | active: 14.1 µM
CCCC(=O)N1CCN(c2ccc(NC(=S)NC(=O)c3cccc(C)c3)cc2)CC1 | inconclusive [activator, single point]
Cc1ccc(C(=O)COC(=O)CCC(=O)Nc2ccc(Oc3ccccc3)cc2)cc1C | inconclusive [activator, partial curve, poor fit]
